Measurements: PubChem BioAssay AID1240 (Sanford-Burnham Center for Chemical Genomics, 2008)
About 800 (1.6%) of roughly 50,000 compounds showed an effect of 50% or more. The list shows a part of the results.

Target: Bcl-2-like protein 10 (Homo sapiens) (UniProt Q9HD36)
Assay: Phenotype converters, Bcl-B/TR3 peptide binding displacement, primary biochemical FP (AID 1240);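 further: 0% = Bcl-B with tracer peptide and DMSO and 100% = tracer peptide lacking Bcl-B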
Conditions: GST-Bcl-B / FITC-TR3 peptide fluorescence polarization; stronger effect = higher value; compound at 3.75 mg/L

Sequence of UniProt Q9HD36 (Q9HD36 whole entry, looked up): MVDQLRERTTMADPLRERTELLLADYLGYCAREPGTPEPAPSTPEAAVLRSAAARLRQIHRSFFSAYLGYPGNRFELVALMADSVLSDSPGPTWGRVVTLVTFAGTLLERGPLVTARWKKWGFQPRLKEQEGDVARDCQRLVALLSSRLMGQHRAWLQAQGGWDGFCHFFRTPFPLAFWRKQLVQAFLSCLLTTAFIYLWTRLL

Question: `COc1ccccc1N1CCN(/N=C\c2ccc(Cl)cc2Cl)CC1` was tested. Which displacement did it give?
Answer: 4.6%

Question: Which displacement does the source give for `Cc1ccc(C)c(COc2cc3oc(=O)c4c(c3cc2Cl)CCC4)c1` here?
Answer: 14.1%

Question: Which displacement does the source give for `CCCC1=NN(C(=O)c2cccc(Cl)c2)C(O)(C(F)(F)F)C1` (centres undefined) here?
Answer: 0.2%

Question: With `CCCC(=O)N1CCN(c2ccc(C(=O)CC)cc2F)CC1` as the compound, how does the displacement read?
Answer: -16.4%

Question: How did the displacement turn out when `COc1cccc(CN2CCN(C3CCC(C)CC3)CC2)c1` (centres undefined) was run?
Answer: 17.9%

Question: How did the displacement turn out when `Clc1ccc(-c2noc(-c3ccc(Cl)cc3Cl)n2)cc1` was run?
Answer: 4.3%

Question: For `COc1cccc(/C=C2/C=C(c3ccc(C)cc3)OC2=O)c1OC(C)=O`, which displacement is on record?
Answer: -2.2%

Question: For `CCc1ccccc1NC(=O)c1ccc(CN(c2cccc(Cl)c2)S(C)(=O)=O)cc1`, which displacement is on record?
Answer: -1%

Question: How did the displacement turn out when `O=C1c2ccccc2C(=O)c2c([N+](=O)[O-])ccc(N3CCCCC3)c21` was run?
Answer: 17.9%

Question: For `CC(C)=C(NC(=O)c1ccccc1)C(=O)N1CCCCC1`, which displacement is on record?
Answer: 6.9%

Question: Which displacement does the source give for `O=C1/C(=C/c2ccc(I)cc2)SC(=S)N1c1ccc([N+](=O)[O-])cc1` here?
Answer: 5.5%

Question: Which displacement does the source give for `O=C1CCC([N+](=O)[O-])C(c2ccc(Cl)c(Cl)c2)N1` (centres undefined) here?
Answer: 0.5%

Question: With `O=C(/C=C/c1ccco1)c1c(-c2ccccc2)c2cc(Cl)ccc2[nH]c1=O` as the compound, how does the displacement read?
Answer: -38.2%

Question: With `CCOc1ccccc1C1Nc2ccccc2NC2=C1C(=O)CC(C)(C)C2` (centres undefined) as the compound, how does the displacement read?
Answer: 1.7%

Question: With `CC(NS(=O)(=O)c1ccc(F)cc1)c1ccccc1` (centres undefined) as the compound, how does the displacement read?
Answer: -5.1%

Question: `Cc1ccc(C(=O)Nc2nc(-c3cccc4ccccc34)cs2)o1` was tested. Which displacement did it give?
Answer: -4.4%

Question: Which displacement does the source give for `Cc1csc(NC(=O)c2ccc(C)c([N+](=O)[O-])c2)n1` here?
Answer: -1.3%

Question: For `O=C(NN1C(=O)c2ccccc2C1=O)c1ccccc1O`, which displacement is on record?
Answer: 14.5%

Question: With `O=C(Nc1ncccc1Cl)C1CCCO1` (centres undefined) as the compound, how does the displacement read?
Answer: 9.4%

Question: With `CCOC(=O)c1c(NC(=O)Cc2ccc(OC)cc2)sc(C(=O)Nc2ccc(C)c(Cl)c2)c1C` as the compound, how does the displacement read?
Answer: 3%

Question: `COc1ccc(C(=O)Nc2ccc(O)c(-c3nc4cc(Cl)ccc4o3)c2)cc1` was tested. Which displacement did it give?
Answer: 40.1%

Question: Which displacement does the source give for `NC(N)=NS(=O)(=O)c1ccc(NC(=S)NC(=O)/C=C/c2ccc(Br)cc2)cc1` here?
Answer: -0.6%

Question: For `CCC1/C(=N\O)CC(c2ccco2)NC1c1ccco1` (centres undefined), which displacement is on record?
Answer: 3.9%

Question: `CCC1=NN2C(=N)/C(=C/c3cccc(OCc4ccccc4F)c3)C(=O)N=C2S1` was tested. Which displacement did it give?
Answer: 6.1%

Question: For `COc1ccc(CCNC(=O)Cc2ccc(Cl)cc2)cc1OC`, which displacement is on record?
Answer: -1%

Question: For `C=CCOc1ccc(/C=C2\C(=O)N(c3cccc(C(=O)O)c3)N=C2C)cc1OC`, which displacement is on record?
Answer: 2.9%

Question: `Cc1cc2nc(-c3cc(NC(=O)Cc4ccccc4)ccc3O)oc2cc1C` was tested. Which displacement did it give?
Answer: 2.3%

Question: With `Cc1ccc(/C=C/C(=O)Nc2nc(-c3ccccc3)cs2)cc1` as the compound, how does the displacement read?
Answer: -7.3%

Question: `N/C(=N\OC(=O)c1ccc([N+](=O)[O-])cc1Cl)c1cccc([N+](=O)[O-])c1` was tested. Which displacement did it give?
Answer: -6.4%

Question: With `COc1ccc2c(c1)cc(C(=O)NN)n2C` as the compound, how does the displacement read?
Answer: 67.4%

Question: With `O=C(Oc1cccc([N+](=O)[O-])c1)c1ccc(-c2ccccc2)cc1` as the compound, how does the displacement read?
Answer: 0.8%

Question: How did the displacement turn out when `COc1ccc(NC(=S)NC(NC(=O)c2ccccc2F)C(Cl)(Cl)Cl)cc1` (centres undefined) was run?
Answer: 1%

Question: `COc1ccccc1NC(=O)C1(c2ccccc2)CCOCC1` was tested. Which displacement did it give?
Answer: -5.7%

Question: With `COc1c(OC(C)=O)ccc(/C=N\NC(=O)COc2cccc(Cl)c2)c1[N+](=O)[O-]` as the compound, how does the displacement read?
Answer: 2.4%

Question: `CCN(CC)S(=O)(=O)c1ccc(Cl)c(C(=O)Nc2cccc(F)c2)c1` was tested. Which displacement did it give?
Answer: 2.8%

Question: For `O=C(Nc1ccc(N2CCOCC2)cc1)c1ccccc1F`, which displacement is on record?
Answer: 13.1%

Question: With `CC(=O)C1=C(O)C(=O)N(CCN(C)C)C1c1ccccc1[N+](=O)[O-]` (centres undefined) as the compound, how does the displacement read?
Answer: -3.6%

Question: `CCOCCOC(=O)C1=C(C)NC2=C(C(=O)CCC2)C1c1cccc(OC)c1OC` (centres undefined) was tested. Which displacement did it give?
Answer: 8.6%

Question: With `C=CCOc1ccc(/C=C2\C(=O)NC(=O)N(c3cc(C)cc(C)c3)C2=O)cc1` as the compound, how does the displacement read?
Answer: -11.2%

Question: Which displacement does the source give for `Cc1ccc(NC(=O)c2cc(NC(=O)c3ccccc3)cc(NC(=O)c3ccccc3)c2)cc1` here?
Answer: 10.5%

Question: With `CCOC(=O)c1sc(NC(=O)c2ccc(C)cc2)c(C(=O)OCC)c1C` as the compound, how does the displacement read?
Answer: -0.3%

Question: With `CC(NC(=O)CN(c1ccc(Br)cc1)S(C)(=O)=O)c1ccccc1` (centres undefined) as the compound, how does the displacement read?
Answer: 3.4%

Question: Which displacement does the source give for `CN(C)c1ccc(C2CC(=O)NC3=C2C(=O)CC(C)(C)C3)cc1` (centres undefined) here?
Answer: 3.9%

Question: For `O=C(N[C@@H]1CSC/C1=N\O)c1ccccc1`, which displacement is on record?
Answer: 3.5%

Question: Which displacement does the source give for `COc1ccc(/C=C/C(=O)n2nc(C)cc2C)cc1OC` here?
Answer: 1.4%

Question: Which displacement does the source give for `O=C(O)c1ccc(NS(=O)(=O)c2cccs2)cc1` here?
Answer: -1%

Question: For `CCc1ccc2oc(-c3cccc(NC(=O)COc4ccc(OC)cc4)c3)nc2c1`, which displacement is on record?
Answer: 10.1%

Question: For `CCOC(=O)C1=C(C)N=c2s/c(=C\c3ccc(OC)cc3OC)c(=O)n2C1/C=C/c1ccccc1` (centres undefined), which displacement is on record?
Answer: 7.5%

Question: Which displacement does the source give for `COCCOC(=O)C1=C(C)N(C)C(=O)NC1c1ccc(Br)cc1` (centres undefined) here?
Answer: -8.1%

Question: `NC(=O)C1CCCc2c1[nH]c1ccccc21` (centres undefined) was tested. Which displacement did it give?
Answer: 13.2%

Question: Which displacement does the source give for `COc1ccc(OC)c(NC(=O)CCc2ccccc2)c1` here?
Answer: 2.7%

Question: For `O=C(c1ccc(N2CCN(C(=O)c3ccc(F)cc3)CC2)cc1)c1cccc(F)c1`, which displacement is on record?
Answer: -6.4%

Question: Which displacement does the source give for `CC(C)=C1C2CCC1C(C(=O)NCCC1=CCCCC1)C2C(=O)O` (centres undefined) here?
Answer: 0.7%

Question: With `COc1cc(/C=N/Nc2ccc3ccccc3n2)cc(Br)c1O` as the compound, how does the displacement read?
Answer: 9.9%
